# Assay results published in the supplement of paper PMC8183993.
# Counter-ions that a name gives are not always drawn. ± gives the standard deviation of the averaged measurements. Over roughly 3,200 compounds, “nuclei count (viability) relative to DMSO” has its median near 99; the lowest 2% begin near 16. The list shows a part of the results.
# Test system: U2OS
# Test: nuclei count (viability) relative to DMSO (% of DMSO); higher = more viable cells
# Conditions: 10 µM; 24 h
# Protocol: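 Primary image-based screen in U2OS cells: compounds at 10 uM for 24 h, then a 1 h o-propargyl-puromycin (OPP) pulse, click labelling, and high-throughput microscopy. Mean cytoplasmic OPP intensity and nuclei count were normalised to DMSO wells within each plate (DMSO = 100) and averaged over triplicate plates.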
row,SMILES,nuclei count
1,COc1cc(O)cc(O)c1C(=O)/C=C/c1ccccc1 [Cardamonin],84.8
2,CC(C)NCC(O)COc1ccc(CC(N)=O)cc1 (racemic) [(RS)-Atenolol],65.9
3,Cc1cnc(NC(=O)C2=C(O)c3ccccc3S(=O)(=O)N2C)s1 [Meloxicam],103
4,O=C(O)CCCc1ccccc1 [sodium 4-Phenylbutyrate],108
5,CC1CC(OC(=O)C(O)c2ccccc2)CC(C)(C)N1C (stereo not drawn) [Eucatropine hydrochloride],107
6,COc1ccccc1S(=O)(=O)Nc1ccc2c(c1)CN(C)C(=O)N2,91.1 ± 1.5
7,c1cc2c(cc1C1CCCCC1)c1c3n2CCNC3CCC1 (stereo not drawn) [Tetrindole mesylate],75.8
8,CCN1CCC[C@H]1CNC(=O)c1c(OC)ccc(Br)c1OC [Remoxipride Hydrochloride],91.9
9,CCN1CCC[C@H]1CNC(=O)c1c(OC)ccc(Br)c1OC [Remoxipride hydrochloride],90.6
10,CCN1CCN(c2cc3c(cc2F)c(=O)c(C(=O)O)cn3C2CC2)CC1 [Enrofloxacin],107
11,FC(F)c1nc2ccccc2n1-c1nc(N2CCOCC2)nc(N2CCOCC2)n1,106
12,Cc1nnc(NS(=O)(=O)c2ccc(N)cc2)s1 [Sulfamethizole],101
13,N=C(N)S/C=C\C(=O)O [ZAPA sulphate],103
14,CN(C)c1ccc(/C=C2/C(=O)Nc3ccccc32)cc1,84.7
15,CNC(=O)[C@H](Cc1c[nH]c2ccccc12)NC(=O)[C@@H](CC(=O)NO)CC(C)C,99.7
16,C[C@H]1C[C@H]2[C@@H]3CCC4=CC(=O)C=C[C@]4(C)[C@@]3(F)[C@@H](O)C[C@]2(C)[C@@]1(O)C(=O)CO [Betamethasone],102
17,C[C@H]1C[C@H]2[C@@H]3CCC4=CC(=O)C=C[C@]4(C)[C@@]3(F)[C@@H](O)C[C@]2(C)[C@@]1(O)C(=O)CO [Betamethasone (Celestone)],106
18,CCCC(CCC)C(=O)NO [Valproic acid hydroxamate],95.7
19,Cc1cc(/C(=C/Nc2ccc(Cl)cc2)C(=O)Nc2ccc(Cl)cc2)on1,102
20,Oc1ccc(OCc2ccccc2)cc1 [Monobenzone],73.5
21,Cc1cc(Nc2ncnc3ccc(-c4ccc(CNCCS(C)(=O)=O)o4)cc23)ccc1Oc1ccn2ncnc2c1 [HER2 Inhibitor 1],92.5
22,CC(C(=O)O)c1ccc(N2Cc3ccccc3C2=O)cc1 (stereo not drawn) [Indoprofen],106
23,CC1=Nc2ccc(Cl)cc2S(=O)(=O)N1 [Diazoxide],96.7 ± 7.7
24,O=C(NCCO[N+](=O)[O-])c1cccnc1 [Nicorandil],106 ± 3.6

row,SMILES,nuclei count
1,Cc1ccc(Cl)c(Nc2ccccc2C(=O)O)c1Cl [Meclofenamic acid sodium salt monohydrate],103
2,C=C1/C(=C\C=C2/CCC[C@]3(C)[C@@H]([C@H](C)/C=C/[C@@H](O)C4CC4)CC[C@@H]23)C[C@@H](O)C[C@@H]1O [Calcipotriene],99.6
3,C=C1/C(=C\C=C2/CCC[C@]3(C)[C@@H]([C@H](C)/C=C/[C@@H](O)C4CC4)CC[C@@H]23)C[C@@H](O)C[C@@H]1O [Calcipotriol],87.7
4,COC(=O)Nc1nc2ccc(SC(C)C)cc2[nH]1 [Methiazole],27.1
5,COC(=O)C1=C(C)NC(C)=C(C(=O)OCCCN2CCC(c3ccccc3)(c3ccccc3)CC2)[C@H]1c1cccc([N+](=O)[O-])c1 [(S)-(+)-Niguldipine hydrochloride],73.5
6,COC(=O)C1=C(C)NC(C)=C(C(=O)OCCCN2CCC(c3ccccc3)(c3ccccc3)CC2)[C@H]1c1cccc([N+](=O)[O-])c1 [S-(+)-Niguldipine hydrochloride],59.3
7,COC(=O)C1=C(C)NC(C)=C(C(=O)OCCCN2CCC(c3ccccc3)(c3ccccc3)CC2)[C@H]1c1cccc([N+](=O)[O-])c1 [Niguldipine],42.7 ± 30
8,CN(C)CCOc1ccc(/C(=C(/CCCl)c2ccccc2)c2ccccc2)cc1 [Toremifene],98.9
9,CCN1CCN(C(=O)N[C@@H](C(=O)N[C@@H]2C(=O)N3C(C(=O)O)=C(CSc4nnnn4C)CS[C@H]23)c2ccc(O)cc2)C(=O)C1=O [Cefoperazone dihydrate],94.4
10,CCOc1nc2cccc(C(=O)O)c2n1Cc1ccc(-c2ccccc2-c2noc(=O)[nH]2)cc1 [Azilsartan (TAK-536)],95.9
11,COCCOC(=O)C1=C(C)NC(C)=C(C(=O)OC/C=C/c2ccccc2)C1c1cccc([N+](=O)[O-])c1 (stereo not drawn) [Cilnidipine],92.6 ± 4.8
12,CCCCNc1ccc(C(=O)OCCOCCOCCOCCOCCOCCOCCOCCOCCOC)cc1 [Benzonatate],98.3
13,Cc1cc([C@@H](C)Nc2ccccc2C(=O)O)c2nc(N3CCOCC3)cc(=O)n2c1,98.4
14,O=C1c2ccccc2C(Cc2ccnc(F)c2)(Cc2ccnc(F)c2)c2ccccc21,110
15,Cc1cc(/C=C/c2ccc3cc(N(C)C)ccc3[n+]2C)c(C)n1-c1ccccc1 [Pyrvinium pamoate],6.32
16,CCCCN1CCC(CCC(=O)c2cc(Cl)c(N)cc2OC)CC1,107
17,CCn1nc(C(=O)O)c(=O)c2cc3c(cc21)OCO3 [Cinoxacin],104
18,O=c1c(-c2ccc(O)cc2)coc2c([C@@H]3O[C@H](CO)[C@@H](O)[C@H](O)[C@H]3O)c(O)ccc12 [Puerarin (Kakonein)],105
19,CNC(=O)c1cc(COc2nnc(Nc3ccc(Cl)cc3)c3ccoc23)ccn1 [Telatinib (BAY 57-9352)],102
20,CCCc1nc(C)c2c(=O)nc(-c3cc(S(=O)(=O)N4CCN(CC)CC4)ccc3OCC)[nH]n12 [Vardenafil],99.1
21,CCCc1nc(C)c2c(=O)nc(-c3cc(S(=O)(=O)N4CCN(CC)CC4)ccc3OCC)[nH]n12 [Vardenafil Hydrochloride Trihydrate (Vivanza)],103
22,O=C(O)/C=C/c1ccc(Cn2ccnc2)cc1 [Ozagrel hydrochloride],103 ± 8.9
23,COc1cc2nccc(Oc3ccc(NC(=O)C4(C(=O)Nc5ccc(F)cc5)CC4)cc3)c2cc1OC [XL-184 free base (Cabozantinib)],51.5
24,COc1cc2nccc(Oc3ccc(NC(=O)C4(C(=O)Nc5ccc(F)cc5)CC4)cc3)c2cc1OC [Cabozantinib malate],59
